# The full ranking holds about 33,000 sequences; the median of “E-score (-0.5 to 0.5)” is about -0.016, and the highest 2% start at about 0.32. The list shows a part of the results.
# Molecular target: T1, Stp1 (UniProt B3LFK1)
# T1 sequence: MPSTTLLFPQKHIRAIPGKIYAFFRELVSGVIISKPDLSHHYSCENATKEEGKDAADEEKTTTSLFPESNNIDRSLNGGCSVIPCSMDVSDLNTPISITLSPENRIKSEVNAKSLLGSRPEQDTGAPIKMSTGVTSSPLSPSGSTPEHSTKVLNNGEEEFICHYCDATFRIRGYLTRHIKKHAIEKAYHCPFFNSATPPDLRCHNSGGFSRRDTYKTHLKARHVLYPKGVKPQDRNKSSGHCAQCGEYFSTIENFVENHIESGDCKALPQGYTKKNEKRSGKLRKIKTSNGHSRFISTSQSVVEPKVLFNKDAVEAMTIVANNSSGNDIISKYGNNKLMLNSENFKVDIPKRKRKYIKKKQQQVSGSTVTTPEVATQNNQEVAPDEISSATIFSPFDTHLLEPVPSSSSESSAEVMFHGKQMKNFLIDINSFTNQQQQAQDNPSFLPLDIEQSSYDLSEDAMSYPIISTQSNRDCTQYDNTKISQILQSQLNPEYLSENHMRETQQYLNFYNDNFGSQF
# Assay: PBM E-score (8-mer binding enrichment) (E-score (-0.5 to 0.5)); higher = stronger / more preferred TF binding; most listed sequences are background and not binding sites
# Conditions: protein concentration: 200 nM; construct: GST-full length
# Outline: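 The E-score, a modified Wilcoxon-Mann-Whitney statistic, was computed by the Universal PBM Analysis Suite for every ungapped eight-base word pooled with its reverse complement. Scans behind it were normalised with masliner after bound GST-tagged yeast transcription factors were detected with fluorescent anti-GST. The proteins, at about 100-200 nM, had been applied to universal all-10-mer Agilent arrays made double-stranded by primer extension.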
row,Sequence,PBM E-score
1,GATCCAAA,0.169
2,CCACTGAG,-0.169
3,TACTACTA,0.233
4,AGCACTGG,-0.259
5,ACAACCAT,0.182
6,AGTCCGAG,-0.0371
7,AGCTCACC,-0.238
8,CGAATCAG,-0.0712
9,CTCATCTA,-0.0574
10,ACACTCGT,-0.0508
11,AACATTAA,0.0927
12,TACCGGGA,-0.175
13,AGTACAGA,0.0823
14,AGATCACC,-0.00473
15,CGCGATTC,0.118
16,ACCGCATC,0.146
17,ACTAATGG,0.0182
18,GATAGTGC,0.00653
19,CAGAGCCG,0.338
20,CGGCGCCA,0.463
21,ACGCCCCG,0.0688
22,CCTGACAC,0.00556

row,Sequence,PBM E-score
1,GATTCAAA,0.0233
2,CATCCCAC,-0.186
3,AGTGTGTA,0.0491
4,CACCTTTA,-0.0604
5,GAGTTATC,-0.0559
6,ATACCTAG,-0.0659
7,AAGAGGAG,-0.165
8,GATTTACC,0.096
9,CTAGCTAC,-0.39
10,ATGGCAAT,0.066
11,GACCGGGA,-0.256
12,GTAATTGA,0.0867
13,AACAAGCT,-0.109
14,GTTTGGGA,0.0153
15,ACACCACT,0.0178
16,CCACCCGC,-0.142
17,AATGTCCA,-0.219
18,CAAATTCA,-0.00383
19,CCACACGA,-0.105
20,CGTTTGAG,0.0843
21,AAACGAAA,0.149
22,AAGCTCAG,-0.185

row,Sequence,PBM E-score
1,TAAGCTCA,-0.114
2,CATAACGC,0.192
3,CATAGCGC,0.163
4,GAACTTCC,-0.103
5,TGGTATAA,0.148
6,AGATATCA,0.0553
7,GATATACC,0.0955
8,AAACTTCC,-0.0326
9,GATGTGAA,0.112
10,AACGCGTT,-0.0683
11,GTTCCCCA,-0.118
12,TAGGAACA,-0.0153
13,GCGAAATA,0.112
14,AACGCGTC,-0.0176
15,CAACAGAG,-0.0194
16,AAAACATC,0.00481
17,CTGTGGGC,-0.0689
18,GGCACCGA,0.356
19,CCATACCC,-0.144
20,CGGAGACA,0.0351
21,AGGAGGGC,-0.243
22,CTGGGAGC,-0.274

row,Sequence,PBM E-score
1,CCATTCCA,0.0856
2,AAAATTCG,0.193
3,AATCGCGC,0.246
4,CCCCCGGA,-0.389
5,ACCCTTAT,0.0536
6,CGCGGTGA,0.0941
7,GAAGCAAC,-0.0277
8,CTAGTACA,0.0255
9,GGCTATTA,0.223
10,AGGTGAGA,-0.0297
11,ATCCGAAC,-0.0234
12,AGCTTTCC,-0.00378
13,AGAGCCGA,0.225
14,AAACAGCG,0.0786
15,GTGGACGA,-0.00073
16,ACCACGAA,-0.137
17,ACGTGATG,-0.0504
18,CGTACCAA,0.0997
19,CTCTGTGA,-0.0746
20,ATGGATAA,0.0972

# From the supplement of paper PMC3334620
